Assay results taken from article PMC4336329 (PLoS ONE, 2015).
In all, about 310,000 compounds went through this assay and about 2,200 (0.71%) showed an effect of 50% or more. The effect is printed as a negative number. The list shows a part of the results.

Each molecule was assayed against human ether-à-go-go-related gene (hERG) potassium channel (human, UniProt Q12809) (assay: primary screen, population patch clamp on CHO cells stably expressing hERG).
human ether-à-go-go-related gene (hERG) potassium channel, sequence (Q12809 whole entry, looked up): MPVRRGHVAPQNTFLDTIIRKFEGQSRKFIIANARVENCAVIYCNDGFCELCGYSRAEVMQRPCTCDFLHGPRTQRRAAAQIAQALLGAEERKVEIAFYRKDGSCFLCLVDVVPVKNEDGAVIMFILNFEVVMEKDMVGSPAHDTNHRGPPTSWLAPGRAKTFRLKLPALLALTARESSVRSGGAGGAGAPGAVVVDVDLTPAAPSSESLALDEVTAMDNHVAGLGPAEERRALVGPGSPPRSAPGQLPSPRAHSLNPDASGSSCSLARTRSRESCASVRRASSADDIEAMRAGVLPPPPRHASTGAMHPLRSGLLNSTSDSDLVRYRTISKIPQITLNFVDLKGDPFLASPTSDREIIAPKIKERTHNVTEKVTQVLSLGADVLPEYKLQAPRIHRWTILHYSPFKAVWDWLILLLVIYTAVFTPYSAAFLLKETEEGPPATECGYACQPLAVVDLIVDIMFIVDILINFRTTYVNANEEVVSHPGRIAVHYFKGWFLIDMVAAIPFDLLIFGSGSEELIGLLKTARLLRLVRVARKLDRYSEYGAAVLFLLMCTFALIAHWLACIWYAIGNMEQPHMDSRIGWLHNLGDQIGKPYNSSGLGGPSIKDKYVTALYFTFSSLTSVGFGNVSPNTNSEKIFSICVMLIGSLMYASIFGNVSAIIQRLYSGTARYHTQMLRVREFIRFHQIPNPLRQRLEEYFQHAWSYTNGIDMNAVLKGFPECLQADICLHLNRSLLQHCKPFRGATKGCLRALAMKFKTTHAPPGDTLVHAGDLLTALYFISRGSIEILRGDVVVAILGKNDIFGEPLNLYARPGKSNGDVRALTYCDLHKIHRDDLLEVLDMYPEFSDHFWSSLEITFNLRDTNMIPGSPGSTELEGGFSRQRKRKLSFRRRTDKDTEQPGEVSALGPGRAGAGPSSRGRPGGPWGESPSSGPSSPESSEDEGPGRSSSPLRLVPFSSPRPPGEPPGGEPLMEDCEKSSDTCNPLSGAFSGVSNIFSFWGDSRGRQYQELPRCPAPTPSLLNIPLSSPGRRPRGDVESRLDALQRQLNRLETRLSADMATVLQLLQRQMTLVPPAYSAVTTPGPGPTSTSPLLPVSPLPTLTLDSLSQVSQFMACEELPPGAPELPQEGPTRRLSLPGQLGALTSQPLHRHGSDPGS

SMILES | hERG current change (%, negative = inhibition) at 1uM [%]
COc1cccc(CNC(=O)C2CCC(=O)N(CC3CCCCC3)C2)c1OC (stereo not shown) | 6.02
O=C(COC(=O)C1CC1)c1c[nH]c2ccccc12 | 5.49
Cc1cc(C)c2cc(C(O)c3nnnn3Cc3ccccc3)c(=O)[nH]c2c1 (stereo not shown) | -3.03
C[C@@H](O)[C@H]1O[C@]2(C)CCC[C@H]1O2 | 11.1
O=C(CN(Cc1ccccc1C(F)(F)F)C(=O)CNC(=O)c1ccco1)NC1CCCC1 | 1.31
Cc1ccc(-c2csc3ncn(CC#N)c(=O)c23)cc1 | 8.21
Cc1cc(NC(=O)CCCOc2ccc(Cl)cc2Cl)no1 | 11.7
CN(C)S(=O)(=O)c1ccc(NC(=S)NC(=O)Cc2ccccc2)cc1 | 13.1
CCN=C1SC(C(=O)Nc2cccc(Cl)c2)CC(=O)N1CC (stereo not shown) | -0.803
CCN1C(=O)C2(C(C(=O)c3ccc(C)o3)=C(O)C(=O)N2CCCN(C)C)c2ccccc21 (stereo not shown) | 14
Cc1cc(C)c(S(=O)(=O)n2ccc3ccccc32)c(C)c1 | 15.1
CC(=O)O.NC1=NC(c2ccc(Br)cc2)n2c(nc3ccccc32)N1 (stereo not shown) | 6.1
C/C(=N\Nc1ccc(F)cc1)c1ccncc1 | -2.2
Cc1ccccc1C(=O)NCCCNC(=O)c1ccccn1 | 9.28
O=C(O)c1cc(-c2ccccc2Cl)n(-c2ccc(F)cc2)n1 | 13.9
Cn1nnnc1Sc1ccc(C(=O)O)cc1[N+](=O)[O-] | 10.8
CC(C)OC(=O)CCc1nc2ccccc2[nH]c1=O | 16.2
Nn1c(SCC(=O)Nc2ccc(F)cc2)nnc1-c1cccnc1 | 20
CCOC(=O)Nc1ccc2nc(N3CCCCCC3)sc2c1 | -28
CCc1cccc(NC(=O)Cc2cn(C)c3ccccc23)c1 | 2.88

SMILES | hERG current change (%, negative = inhibition) at 1uM [%]
CCOc1ccc(S(=O)(=O)N(C)c2ccc(OCC(=O)NCCc3ccc(OC)cc3)cc2)cc1 | 11.5
C/C(=N\NC(=O)c1cccc(C)c1O)c1ccc(NC(=O)Cc2ccccc2)cc1 | -12.9
O=C1CC(c2ccccc2)CC(O)=C1C=NCCN1CCNCC1 (stereo not shown) | 14.3
COc1ccc(-c2cc3c(=O)n(CC(=O)NCCCN4CCC(N5CCCCC5)CC4)nc(C)n3n2)cc1 | 7.62
Nc1ccc(CN2CCCCCC2)cc1 | 18.7
O=C(CNS(=O)(=O)c1ccccc1)NCc1ccccn1 | 4.41
Cc1ccc(C=Nc2ccccc2C(N)=O)s1 | 16.6
O=C(CCl)Nc1cccc(CP(=O)(c2ccccc2)c2ccccc2)c1 | 1.8
Cn1nc(C(C)(C)C)cc1NC(=O)Nc1ccc(Cl)cc1 | 15.4
CCOC(=O)C1=C(C)OC(N)=C(C#N)C1c1ccsc1 (stereo not shown) | 4.67
COc1cc(OC)cc(C(=O)NCc2cc(C)nc3ccccc23)c1 | -0.926
Cc1cccc(NP(=O)(Oc2ccccc2F)Oc2ccccc2F)c1 | 3.98
CC(/C=C/c1ccc2c(c1)OCO2)=N/NC(=O)c1ccc(C)nc1 | 2.96
O=C(C1c2ccccc2Oc2ccccc21)N1CCN(c2ccc(Cl)cc2)CC1 | 10.7
Cc1cc(NS(=O)(=O)c2ccc(NC(=O)C(C)Oc3ccc(C(C)C)cc3)cc2)no1 (stereo not shown) | 18.5
CCCN(CCC)CCCNC(=O)c1ccc2c(Cl)c3c(nc2c1)CCC3 | 4.97
Cc1nc(N2CCN(c3ccccn3)CC2)c2c(C)c(C(=O)N3CCN(c4ccc(F)cc4)CC3)sc2n1 | 7.79
CN(CC1CCCN(CCc2ccc(Cl)cc2)C1)C(=O)C(=O)c1ccco1 (stereo not shown) | -72.5
CC(C)c1ccc(NC(=S)NN2C(C)CCCC2C)cc1 (stereo not shown) | 12.4
Cc1cccc(-n2ccnc2CN2CCN(C3CCCC3)C(CCO)C2)c1 (stereo not shown) | -5.55

SMILES | hERG current change (%, negative = inhibition) at 1uM [%]
CCOc1ccc(OCC)c(NC(=O)CC2Oc3ccccc3NC2=O)c1 (stereo not shown) | 8.61
Cc1cccc(NCN2C(=O)C3C4C=CC(C4)C3C2=O)c1 (stereo not shown) | -3.98
COC(=O)c1ccc(NC(=O)c2cc3sccc3n2C)cc1 | 5.86
O=C(C1CCC1)N1CCc2cc(S(=O)(=O)N3CCCCC3)ccc21 | -2.01
COc1ccc([C@H]2CC(=O)C=C(c3cccc(Cl)c3O)C2)cc1OC | 9
CCn1c(CCCc2ccc(OC)c(C)c2)n[nH]c1=S | 13.7
Cc1ccc(N2C(=O)C3C4C=CC(CC4)C3C2=O)cc1Cl (stereo not shown) | 16.3
CC(C)c1onc(C(=O)N2CCC3(CC2)OCCO3)c1[N+](=O)[O-] | 3.48
CC(=NCCCn1ccnc1)c1c(O)n(C2CCCCC2)c(=O)[nH]c1=O | 7.29
COc1ccccc1-c1cc(C(F)(F)F)nc(S(C)(=O)=O)n1 | 9.42
COc1ccc(S(=O)(=O)N2CCC(NC(=O)C3CCCCC3)CC2)cc1 | 11.4
Cc1cc(SCC(N)=O)nc(SCC(=O)c2ccccc2)n1 | -5.09
Cc1cc(CNC(=O)c2ccc3nc(Cc4ccccc4F)oc3c2)nn1C | 13.2
COc1ccc(C(=O)NCCC(C)C)cc1S(=O)(=O)N1CCOCC1 | 2.3
NS(=O)(=O)c1ccc(CCNC(=O)CSc2ccc3ccccc3c2)cc1 | 10.7
Clc1ccc(Oc2nnnn2-c2ccccc2)cc1 | -1.29
Cc1cccc(NS(=O)(=O)c2cc(C(=O)NCCC3=CCCCC3)ccc2Cl)c1 | 7.03
COc1ccc(-n2nc(C(=O)NCC(=O)N3CCCCC3)c3ccccc3c2=O)cc1 | 9.59
